{
  "source": "PubChem BioAssay AID485294",
  "about": "(National Center for Advancing Translational Sciences (NCATS), 2010)",
  "note": "Hit rate of the full screen: of about 370,000 compounds, about 150 (0.041%) were called active. This list was built around the results that the source calls inconclusive (neither active nor inactive); the mix of calls is not that of the screen. The call rests on the fitted dose curve; in most records, active means well fitted inhibition curve with a large enough effect; inconclusive means small, poorly fitted or top-dose-only effect; inactive means flat fitted curve, though single readings scatter. Potencies of inconclusive entries are left out as doubtful fits. Potency means the concentration at half of the fitted maximal effect; tags describe the fitted curve by direction and shape.",
  "data": [
    {"target": "Beta-lactamase (Escherichia coli (strain K12)) (UniProt P00811)", "sequence (P00811 whole entry, looked up)": "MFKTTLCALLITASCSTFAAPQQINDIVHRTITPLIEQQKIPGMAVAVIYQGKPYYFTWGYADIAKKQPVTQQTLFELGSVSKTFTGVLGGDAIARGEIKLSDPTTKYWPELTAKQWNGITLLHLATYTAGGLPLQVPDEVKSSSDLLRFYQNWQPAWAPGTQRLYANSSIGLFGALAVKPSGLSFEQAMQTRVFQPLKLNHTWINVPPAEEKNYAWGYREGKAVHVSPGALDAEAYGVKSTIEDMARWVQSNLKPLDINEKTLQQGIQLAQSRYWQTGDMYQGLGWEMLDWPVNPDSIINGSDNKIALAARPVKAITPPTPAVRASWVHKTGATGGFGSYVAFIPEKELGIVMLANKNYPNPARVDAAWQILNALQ", "assay": "qHTS Inhibitors of AmpC Beta-Lactamase (assay with detergent); further: nearly all actives have a fitted effect of over 25% in size", "settings": "AmpC hydrolysis of nitrocefin, absorbance 480 nm, 0.01% Triton; series mostly up to 114 µM", "how_it_was_run": "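20 mM phosphate pH 7.0 + 0.01% (detergent screen) or 0.0001% Triton X-100; 5.3 nM AmpC reagent; cpd preinc 15 min RT; nitrocefin (800 uM stock) to start; A480 q20 s × 4 min; Activity was normalised to no-enzyme and no-compound control wells.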", "values": [
      {"smiles": "CC(=O)Nc1nc(C)c(Oc2ccccc2)c(=O)[nH]1", "Potency": "inconclusive [inhibitor, full curve, poor fit]"},
      {"smiles": "Cc1cc(CNC(=S)Nc2cccc(Cl)c2Cl)nn1C", "Potency": "inactive"},
      {"smiles": "Cc1ccc(-c2nc(CS(=O)(=O)CC(=O)N3CCc4ccccc4C3)c(C)o2)cc1", "Potency": "inconclusive [inhibitor, full curve, poor fit]"},
      {"smiles": "CC(=O)Nc1cccc(C(=O)/C=C/c2ccc(C)cc2)c1", "Potency": "inactive"},
      {"smiles": "CCOc1ccc(N2C(=O)Nc3ccc(Br)cc3C2(O)C(=O)NCCCN(C)C)cc1", "note": "(stereo not drawn)", "Potency": "inactive"},
      {"smiles": "Cc1ccc(C=Nc2ccccc2C(N)=O)s1", "Potency": "inconclusive [inhibitor, full curve]"},
      {"smiles": "CC(C)C(=O)N1CCN(c2nc(-c3ccccc3)c3c(c2C#N)CC(C)(C)OC3)CC1", "Potency": "inconclusive [inhibitor, full curve]"},
      {"smiles": "COc1ccccc1C(=O)Nn1c(C2CCC2)nc2ccccc2c1=O", "Potency": "inconclusive [inhibitor, partial curve]"},
      {"smiles": "Cc1ccc(C)c(Nc2ncnc3nc[nH]c23)c1", "Potency": "inconclusive [inhibitor, partial curve, poor fit]"},
      {"smiles": "O=C1CC(c2cccs2)c2ccc3ccccc3c2N1", "note": "(stereo not drawn)", "Potency": "inconclusive [inhibitor, full curve, poor fit]"},
      {"smiles": "COc1ccc(CCNC(=O)COC(=O)c2ccc(C)s2)cc1OC", "Potency": "inconclusive [inhibitor, full curve, poor fit]"},
      {"smiles": "CC(C)OP(=O)(OC(C)C)C(Nc1ccccn1)c1ccc(F)cc1", "note": "(stereo not drawn)", "Potency": "inconclusive [inhibitor, full curve]"},
      {"smiles": "COc1ccc(-c2nnc(SCC(=O)Nc3cccc(C(F)(F)F)c3)nc2-c2ccc(OC)cc2)cc1", "Potency": "inactive"},
      {"smiles": "COc1ccc(-c2coc3cc(O)ccc3c2=O)cc1O", "Potency": "inactive"},
      {"smiles": "O=C1Nc2cc(Cl)c(Cl)cc2N(O)N1c1ccccc1Cl", "Potency": "inconclusive [inhibitor, single point]"},
      {"smiles": "C=Cc1ccc(Cn2c(C(=O)O)c(CNC3CCCCC3)c3ccc(C)cc32)cc1", "Potency": "inactive"},
      {"smiles": "O=C(CCS(=O)(=O)c1ccc(Br)s1)NC1CCCCCC1", "Potency": "inconclusive [inhibitor, full curve, poor fit]"},
      {"smiles": "COC(=O)[C@@H](NC(=O)NCc1ccc(F)cc1)C(C)C", "Potency": "inconclusive [inhibitor, full curve, poor fit]"},
      {"smiles": "COc1ccc(OC)c(Nc2ncnc3c2cnn3-c2ccccc2)c1", "Potency": "inconclusive [inhibitor, partial curve]"},
      {"smiles": "O=C(O)CCCC(=O)Nc1ccc(Br)cc1C(=O)O", "Potency": "inconclusive [inhibitor, single point]"},
      {"smiles": "Cc1ccc(NC(=O)C2CC(=O)NC(Nc3cccc(C)c3)=N2)cc1", "note": "(stereo not drawn)", "Potency": "inconclusive [inhibitor, full curve]"},
      {"smiles": "Fc1ccc(-c2cc(C(F)(F)F)nc(-n3cc(Cl)cn3)n2)cc1", "Potency": "inconclusive [inhibitor, partial curve]"},
      {"smiles": "Cc1cc(N2CCCCC2)nc(-c2ccc(Br)cc2)n1", "Potency": "inconclusive [inhibitor, full curve]"},
      {"smiles": "NC(=O)c1oc2ccccc2c1NC(=O)CCc1ccccc1", "Potency": "inconclusive [inhibitor, partial curve]"},
      {"smiles": "CCC(C)[C@H](NC(=O)C1CCC(CNC(=O)[C@@H]2CCCN2C(=O)OC(C)(C)C)CC1)C(=O)O", "note": "(stereo partly drawn)", "Potency": "inconclusive [inhibitor, full curve, poor fit]"},
      {"smiles": "O=C(CCS(=O)(=O)c1cccc2nonc12)Nc1c(F)cccc1F", "Potency": "inconclusive [inhibitor, full curve, poor fit]"},
      {"smiles": "Cc1ccccc1C(=O)c1cccn1CC(=O)NCC(C)c1ccccc1", "note": "(stereo not drawn)", "Potency": "inconclusive [inhibitor, partial curve]"},
      {"smiles": "CCCCOC(=O)/C=C/c1ccc(OC(=O)OC)c(OC(=O)OC)c1", "Potency": "inconclusive [inhibitor, full curve, poor fit]"},
      {"smiles": "O=C(CSc1nc(C2CC2)n(-c2ccccc2)n1)NCc1ccco1", "Potency": "inconclusive [inhibitor, full curve, poor fit]"},
      {"smiles": "O=C(NC1CC1)C1=C[C@@H](c2csc3ccccc23)C[C@@H](OCCCCO)O1", "Potency": "inactive"},
      {"smiles": "O=C(CN1C(=O)NC2(CCCC2)C1=O)Nc1ccc(F)c([N+](=O)[O-])c1", "Potency": "inactive"},
      {"smiles": "Cc1ccc(C)n1CCN1CCN(C(=O)CSc2nc3ccccc3nc2N2CCOCC2)CC1", "Potency": "inconclusive [inhibitor, single point]"},
      {"smiles": "Cc1cc([N+](=O)[O-])nn1CC(=O)NCc1cccs1", "Potency": "inactive"},
      {"smiles": "S=C(NCC1CCCO1)Nc1ccc(Cl)cc1", "note": "(stereo not drawn)", "Potency": "inactive"},
      {"smiles": "CS(=O)(=O)c1ccc(NC(=O)C2CC(=O)N(c3ccc4c(c3)OCCO4)C2)cc1", "note": "(stereo not drawn)", "Potency": "inconclusive [inhibitor, full curve, poor fit]"},
      {"smiles": "CC1CC(=O)N(CC(=O)Nc2ccccc2F)c2ccccc2S1(=O)=O", "note": "(stereo not drawn)", "Potency": "inconclusive [inhibitor, full curve]"},
      {"smiles": "COc1cccc(-c2nc(-c3ccc4c(c3)-c3ccccc3S4(=O)=O)c(-c3ccccc3)[nH]2)c1OC", "Potency": "inactive"},
      {"smiles": "CCOC(=O)N1CCN(C(=O)CCS(=O)(=O)c2ccc(Br)s2)CC1", "Potency": "inconclusive [inhibitor, full curve, poor fit]"},
      {"smiles": "COc1ccc(OCc2nnc(SC3CCOC3=O)n2-c2ccccc2)cc1", "note": "(stereo not drawn)", "Potency": "inconclusive [inhibitor, full curve, poor fit]"},
      {"smiles": "Cc1cccc(C)c1OCC(=O)Nc1ncn[nH]1", "Potency": "inconclusive [inhibitor, partial curve, poor fit]"},
      {"smiles": "CC(C)(CN1CCCC1)NC(=O)C1CCC(=O)N(CCCN2CCOCC2)C1", "note": "(stereo not drawn)", "Potency": "inconclusive [inhibitor, partial curve]"},
      {"smiles": "COC(=O)c1c(NC(=O)CN2CCC(C)CC2)c2c(C)cccc2n1C", "Potency": "inconclusive [inhibitor, full curve, poor fit]"},
      {"smiles": "CC1CC(C)CN(C(=O)CSc2nnc(-c3ccc(Cl)cc3)o2)C1", "note": "(stereo not drawn)", "Potency": "inconclusive [inhibitor, full curve]"}
    ]}
  ]
}
